This is an account of results in PubChem BioAssay AID270 (DTP/NCI, 2004).

Molecules are shown by their SMILES. Several values for one entry are separate records, joined by “and”; a condition that tells them apart may be missing. Identical values can stand only once. The source gives many values for each of these; only a part stands here. Inconclusive results are not listed.

The test has as its system BDF1 mice, s.c. Lewis lung carcinoma, T/C %. Description: NCI In Vivo Anticancer Drug Screen. Data for tumor model Lewis Lung Carcinoma (subcutaneous) in B6D2F1 (BDF1) mice. How it is done:
The antitumor activity of compounds was measured in mice bearing transplantable tumors. Survival or tumor size were measured and the results are expressed as the measurement made in the treated group (T) divided by the measurement made in the vehicle treated control group (C). The tumor model used in this assay is Lewis Lung Carcinoma (subcutaneous) in B6D2F1 (BDF1) mice

With `CC1CCC(NC(=O)N(CCCl)N=O)CC1` (configuration not stated), the T/C is 171 % of control (endpoint: median survival time, dose: 8.0 mg/kg/injection, schedule: Q01DX001 (ip), vehicle: saline + alcohol, higher = longer survival); 197 % of control (endpoint: median survival time, dose: 10.0 mg/kg/injection, schedule: Q04DX003 (ip), vehicle: other, higher = longer survival); 179 % of control (endpoint: median survival time, dose: 10.0 mg/kg/injection, schedule: Q07DX002 (ip), vehicle: saline + alcohol, higher = longer survival); 218 % of control and 439 % of control (endpoint: median survival time, dose: 15.0 mg/kg/injection, schedule: Q01DX005 (ip), vehicle: saline with Tween-80, higher = longer survival); 179 % of control and 197 % of control and 303 % of control (endpoint: median survival time, dose: 15.0 mg/kg/injection, schedule: Q04DX004 (ip), vehicle: saline with Tween-80, higher = longer survival); 171 % of control (endpoint: median survival time, dose: 16.0 mg/kg/injection, schedule: Q01DX001 (ip), vehicle: saline + alcohol, higher = longer survival). Further, the T/C (endpoint: median survival time, dose: 16.0 mg/kg/injection, schedule: Q01DX002 (ip), vehicle: gum acacia, higher = longer survival) was 221 % of control; the T/C (endpoint: median survival time, dose: 16.0 mg/kg/injection, schedule: Q02DX002 (ip), vehicle: gum acacia, higher = longer survival) is 195 % of control; the T/C (endpoint: median survival time, dose: 16.0 mg/kg/injection, schedule: Q03DX002 (ip), vehicle: gum acacia, higher = longer survival) is 192 % of control; the T/C (endpoint: median survival time, dose: 16.0 mg/kg/injection, schedule: Q04DX002 (ip), vehicle: gum acacia, higher = longer survival) is 252 % of control; the T/C (endpoint: median survival time, dose: 16.0 mg/kg/injection, schedule: Q07DX002 (ip), vehicle: saline with Tween-80, higher = longer survival) was 170 % of control; the T/C (endpoint: median survival time, dose: 20.0 mg/kg/injection, schedule: Q01DX001 (ip), vehicle: saline with Tween-80, higher = longer survival) is 211 % of control. In addition, the T/C (endpoint: median survival time, dose: 20.0 mg/kg/injection, schedule: Q07DX002 (ip), vehicle: saline + alcohol, higher = longer survival) is 197 % of control; the T/C (endpoint: median survival time, dose: 24.0 mg/kg/injection, schedule: Q01DX002 (ip), vehicle: gum acacia, higher = longer survival) was 178 % of control; the T/C (endpoint: median survival time, dose: 24.0 mg/kg/injection, schedule: Q02DX002 (ip), vehicle: gum acacia, higher = longer survival) is 391 % of control; the T/C (endpoint: median survival time, dose: 24.0 mg/kg/injection, schedule: Q03DX002 (ip), vehicle: gum acacia, higher = longer survival) was 391 % of control; the T/C (endpoint: median survival time, dose: 24.0 mg/kg/injection, schedule: Q04DX002 (ip), vehicle: gum acacia, higher = longer survival) was 356 % of control; the T/C (endpoint: median survival time, dose: 24.0 mg/kg/injection, schedule: Q05DX002 (ip), vehicle: gum acacia, higher = longer survival) was 391 % of control. Moreover, the T/C is 391 % of control and 448 % of control (endpoint: median survival time, dose: 24.0 mg/kg/injection, schedule: Q06DX002 (ip), vehicle: gum acacia, higher = longer survival); 205 % of control (endpoint: median survival time, dose: 24.0 mg/kg/injection, schedule: Q07DX002 (ip), vehicle: saline with Tween-80, higher = longer survival); 173 % of control (endpoint: median survival time, dose: 24.0 mg/kg/injection, schedule: Q10DX002 (ip), vehicle: gum acacia, higher = longer survival); 180 % of control and 336 % of control (endpoint: median survival time, dose: 25.0 mg/kg/injection, schedule: Q04DX004 (ip), vehicle: saline with Tween-80, higher = longer survival); 179 % of control (endpoint: median survival time, dose: 28.0 mg/kg/injection, schedule: Q01DX001 (ip), vehicle: gum acacia, higher = longer survival); 195 % of control (endpoint: median survival time, dose: 30.0 mg/kg/injection, schedule: Q07DX002 (ip), vehicle: saline + alcohol, higher = longer survival). For the same compound, the T/C was 211 % of control (endpoint: median survival time, dose: 32.0 mg/kg/injection, schedule: Q01DX001 (ip), vehicle: saline + alcohol, higher = longer survival); 178 % of control and 211 % of control (endpoint: median survival time, dose: 40.0 mg/kg/injection, schedule: Q01DX001 (ip), vehicle: saline with Tween-80, higher = longer survival); 204 % of control (endpoint: median survival time, dose: 54.0 mg/kg/injection, schedule: Q01DX001 (ip), vehicle: saline with Tween-80, higher = longer survival); 123 % of control (endpoint: median survival time, dose: 71.0 mg/kg/injection, schedule: Q01DX001 (ip), vehicle: saline with Tween-80, higher = longer survival); 185 % of control (endpoint: median survival time, dose: 107.0 mg/kg/injection, schedule: Q01DX001 (ip), vehicle: saline with Tween-80, higher = longer survival); 96 % of control (endpoint: median tumor weight (est.), dose: 36.0 mg/kg/injection, schedule: Q01DX001 (ip), vehicle: saline with Tween-80, higher = larger tumour). Besides, the T/C (endpoint: median tumor weight (est.), dose: 50.0 mg/kg/injection, schedule: Q01DX001 (ip), vehicle: saline with Tween-80, higher = larger tumour) is 59 % of control; the T/C (endpoint: median tumor weight (est.), dose: 54.0 mg/kg/injection, schedule: Q01DX001 (ip), vehicle: saline with Tween-80, higher = larger tumour) is 106 % of control; the T/C (endpoint: median tumor weight (est.), dose: 75.0 mg/kg/injection, schedule: Q01DX001 (ip), vehicle: saline with Tween-80, higher = larger tumour) was 55 % of control; the T/C (endpoint: median tumor weight (est.), dose: 81.0 mg/kg/injection, schedule: Q01DX001 (ip), vehicle: saline with Tween-80, higher = larger tumour) was 104 % of control; the T/C (endpoint: median tumor weight (est.), dose: 120.0 mg/kg/injection, schedule: Q01DX001 (ip), vehicle: saline with Tween-80, higher = larger tumour) is 85 % of control; the T/C (endpoint: median tumor weight (est.), dose: 150.0 mg/kg/injection, schedule: Q01DX001 (ip), vehicle: saline with Tween-80, higher = larger tumour) is 48 % of control.

As for `O=P1(N(CCCl)CCCl)NCCCO1` (configuration not stated), the T/C is, setting by setting: (endpoint: mean survival time, dose: 200.0 mg/kg/injection, schedule: Q08DX002 (ip), vehicle: saline, higher = longer survival) 250 % of control; (endpoint: median survival time, dose: 67.0 mg/kg/injection, schedule: Q01DX005 (ip), vehicle: saline, higher = longer survival) 439 % of control; (endpoint: median survival time, dose: 100.0 mg/kg/injection, schedule: Q01DX005 (ip), vehicle: saline, higher = longer survival) 323 % of control and 439 % of control; (endpoint: median survival time, dose: 100.0 mg/kg/injection, schedule: Q04DX003 (sc), vehicle: saline, higher = longer survival) 245 % of control and 309 % of control; (endpoint: median survival time, dose: 150.0 mg/kg/injection, schedule: Q04DX003 (ip), vehicle: saline, higher = longer survival) 254 % of control; (endpoint: median survival time, dose: 200.0 mg/kg/injection, schedule: Q01DX001 (ip), vehicle: water, higher = longer survival) 363 % of control. In addition, the T/C is 250 % of control (endpoint: median survival time, dose: 200.0 mg/kg/injection, schedule: Q08DX002 (ip), vehicle: saline, higher = longer survival); 246 % of control (endpoint: median survival time, dose: 225.0 mg/kg/injection, schedule: Q07DX004 (ip), vehicle: saline, higher = longer survival); 363 % of control (endpoint: median survival time, dose: 300.0 mg/kg/injection, schedule: Q01DX001 (ip), vehicle: water, higher = longer survival); 243 % of control (endpoint: median survival time, dose: 400.0 mg/kg/injection, schedule: Q01DX001 (ip), vehicle: saline, higher = longer survival); 245 % of control (endpoint: median survival time, dose: 556.0 mg/kg/injection, schedule: Q01DX001 (ip), vehicle: saline, higher = longer survival).
